Test results: PubChem BioAssay AID254 (DTP/NCI, 2004)
Toxic doses and inconclusive results are not listed. A number of entries come with more than one value. This is not the full list of results. The source may hold further records. The records of an entry are repeats across runs, samples, wells, individuals or studies.

System: L1210 leukemia iv in BDF1 mice, survival T/C
Experiment: NCI In Vivo Anticancer Drug Screen. Data for tumor model L1210 Leukemia (intravenous) in B6D2F1 (BDF1) mice
Conditions: endpoint: mean survival time; dose: 12.0 mg/kg/injection; schedule: Q01DX001 (ip); vehicle: carboxymethylcellulose (CMC); higher = longer survival
Experimental: The antitumor activity of compounds was measured in mice bearing transplantable tumors. Survival or tumor size were measured and the results are expressed as the measurement made in the treated group (T) divided by the measurement made in the vehicle treated control group (C). The tumor model used in this assay is L1210 Leukemia (intravenous) in B6D2F1 (BDF1) mice

## O=NN(CCCl)C(=O)N[C@H]1CCCC[C@H]1Cl
  T/C: 121 % of control and 157 % of control
